40 compounds from the antibiotic and cytotoxicity screens of Wong et al. (2023) can be followed below.

Some of the results follow.

In the test the test system is S. aureus RN4220. Nature of the test: growth inhibition call (relative growth <= 0.2). The settings on record: 50 µM.
In the case of `COc1ccc(S(=O)(=O)Nc2ccc3c(c2)C(=O)N([C@@H](C)CO)C[C@H](C)[C@@H](CN(C)Cc2ccc4c(c2)OCO4)OCCCC[C@@H](C)O3)cc1`, the growth inhibition call is “inactive”.

Take `C[C@@H]1CCCCO[C@H](CN(C)C(=O)Nc2cccc3ccccc23)[C@H](C)CN([C@H](C)CO)C(=O)c2cc(NC(=O)Cc3ccccc3)ccc2O1`: the growth inhibition call is “inactive”.

Consider `Cc1ccc(C(=O)O)c(=O)[nH]1`, for which the growth inhibition call was “inactive”.

Consider `O=C(C[C@H]1C[C@@H]2c3cc(NC(=O)NC4CCCC4)ccc3O[C@@H]2[C@@H](CO)O1)NCc1ccc2c(c1)OCO2`, for which the growth inhibition call is “inactive”.

For the compound `COc1ccc(NC(=O)N(C)C[C@@H]2OCCCC[C@H](C)Oc3ccc(NS(=O)(=O)c4ccc(C)cc4)cc3C(=O)N([C@H](C)CO)C[C@H]2C)cc1`, the growth inhibition call is “inactive”.

As for `COc1ccc2c3c([nH]c2c1)[C@H](CO)N(C[C@]13CCN(CC1)Cc1ccccc1)S(=O)(=O)c1cn(cn1)C`, the growth inhibition call was “inactive”.

As for `C[C@H]1CN([C@@H](C)CO)S(=O)(=O)c2ccc(C#Cc3ccccc3F)cc2O[C@@H]1CN(C)CC1CCOCC1`, the growth inhibition call was “inactive”.

As for `Cc1noc(C)c1NC(=O)Nc1ccc2c(c1)C(=O)N([C@@H](C)CO)C[C@@H](C)[C@@H](CN(C)Cc1ccc(C(F)(F)F)cc1)OCCCC[C@H](C)O2`, the growth inhibition call was “inactive”.

As to `Cc1cnc(N2C[C@H]3OCCN(S(=O)(=O)N(C)C)[C@H]3C2)nc1`, the growth inhibition call was “inactive”.

Turning to `FC(F)(F)c1nnc2n1CCNC2`, the growth inhibition call was “inactive”.

For `C[C@@H]1CN([C@@H](C)CO)S(=O)(=O)c2ccc(-c3cncnc3)cc2O[C@H]1CN(C)C(=O)CN(C)C`, the growth inhibition call is “inactive”.

As for `O=C(C[C@H]1CC[C@@H](NC(=O)Nc2ccc3c(c2)OCO3)[C@H](CO)O1)NCCCN1CCOCC1`, the growth inhibition call is “inactive”.

Regarding `C[C@H](CO)N1C[C@H](C)[C@@H](CN(C)S(=O)(=O)c2cn(C)cn2)Oc2ccc(NC(=O)CCC(F)(F)F)cc2CC1=O`, the growth inhibition call was “inactive”.

On to `O=C(Cn1cnnn1)NS(=O)(=O)c1ccccc1`, for which the growth inhibition call was “inactive”.

Regarding `CC(C)NC(=O)Nc1ccc2c(c1)C(=O)N([C@H](C)CO)C[C@H](C)[C@H](CN(C)C(=O)NC1CCCCC1)O2`, the growth inhibition call is “inactive”.

Regarding `COc1ccc(NC(=O)N(C)C[C@H]2OCCCC[C@@H](C)Oc3ccc(NS(=O)(=O)c4cccs4)cc3C(=O)N([C@@H](C)CO)C[C@H]2C)cc1`, the growth inhibition call was “inactive”.

On to `CO[C@@]12[C@@H]3N[C@@H]3CN1C1=C(C(=O)C(N)=C(C)C1=O)[C@@H]2COC(N)=O`, for which the growth inhibition call was “active”.

In the case of `O=C(CCCCCNC(=O)OCc1ccc(CO[C@H]2C[C@@H](c3ccc(C(F)(F)F)cc3)C=C(C(=O)N3CCN(Cc4ccccc4)CC3)O2)cc1)NO`, the growth inhibition call is “inactive”.

Consider `CCCN(C)C[C@H]1OCCCC[C@H](C)Oc2ccc(NC(=O)C3CCCCC3)cc2C(=O)N([C@@H](C)CO)C[C@H]1C`, for which the growth inhibition call was “inactive”.

Turning to `COc1ccc(S(=O)(=O)Nc2ccc3c(c2)CC(=O)N([C@H](C)CO)C[C@@H](C)[C@H](CN(C)S(=O)(=O)c2ccc(C)cc2)O3)cc1`, the growth inhibition call is “inactive”.

Take `C[C@@H]1CN([C@@H](C)CO)C(=O)c2cc(NC(=O)Cc3ccccc3)ccc2O[C@@H](C)CCCCO[C@H]1CN(C)C(=O)c1ccccc1`: the growth inhibition call is “inactive”.

Consider `C[C@@H]1CCCCO[C@H](CN(C)Cc2ccccc2)[C@@H](C)CN([C@@H](C)CO)C(=O)c2cc(NC(=O)NC3CCCCC3)ccc2O1`, for which the growth inhibition call was “inactive”.

As for `Cc1noc(C)c1S(=O)(=O)N(C)C[C@H]1Oc2ccc(NC(=O)Cc3ccccc3)cc2CC(=O)N([C@H](C)CO)C[C@@H]1C`, the growth inhibition call is “inactive”.

Consider `NCCCCCNC(=O)[C@@H]1C[C@@H]2C(=O)NCC(=O)N2[C@@H]1c1cccc(OCCO)c1`, for which the growth inhibition call was “inactive”.

Regarding `CCOC(=O)N1CCN([C@H](c2ccc(OC)cc2)c2cc(CC)sc2NC(=O)c2ccccc2)CC1`, the growth inhibition call is “inactive”.

As to `CC(C)N1C[C@H](CNCc2ccc(Oc3ccccc3)cc2)Oc2c(NC(=O)c3ccncc3)cccc2C1=O`, the growth inhibition call was “inactive”.

Take `CC(=O)O[C@@H]1C[C@H]2[C@@]3(C)CC[C@@H](OC(=O)CC(=O)O)C(C)(C)[C@@H]3CC[C@@]2(C)[C@]2(C)CC[C@](O)([C@]3(C)CC[C@H](C(C)(C)O)O3)[C@@H]12`: the growth inhibition call was “inactive”.

`COc1ccc(cc1)CN1CC[C@]2(CC1)CN([C@H](CO)c1[nH]c3cc(ccc3c12)OC)C(=O)CN(C)C`: the growth inhibition call is “inactive”.

Regarding `CC1(C)C(=O)C=CC2(C)C1C=CC1(C)C2CCC2(C)C(c3ccoc3)OC(=O)C3OC312` (stereo not given), the growth inhibition call is “inactive”.

On to `COc1ccc(S(=O)(=O)N(C)C[C@H]2Oc3c(NS(=O)(=O)c4cccs4)cccc3C(=O)N([C@@H](C)CO)C[C@H]2C)cc1`, for which the growth inhibition call was “inactive”.

Consider `COc1ccc(NC(=O)N[C@@H]2CC[C@H](CCNC(=O)CN3CCOCC3)O[C@H]2CO)cc1`, for which the growth inhibition call was “inactive”.

In the case of `CNC[C@@H]1OCCCC[C@H](C)Oc2ccc(NC(=O)c3ccncc3)cc2C(=O)N([C@H](C)CO)C[C@H]1C`, the growth inhibition call is “inactive”.

For `C[C@H](CO)N1C[C@H](C)[C@H](CN(C)Cc2ccccc2)Oc2cc(C#CC(C)(C)O)ccc2S1(=O)=O`, the growth inhibition call is “inactive”.

For `C[C@@H]1CN([C@@H](C)CO)C(=O)Cc2cc(NC(=O)Cn3cnnn3)ccc2O[C@@H]1CN(C)C(=O)Nc1ccc(F)cc1`, the growth inhibition call was “inactive”.

Take `C[C@@H]1CN([C@@H](C)CO)C(=O)c2cc(NS(=O)(=O)c3cn(C)cn3)ccc2O[C@@H](C)CCCCO[C@H]1CN(C)C(=O)c1ccncc1`: the growth inhibition call is “inactive”.

`C[C@@H]1CN([C@H](C)CO)C(=O)c2cccc(NC(=O)C3CCOCC3)c2O[C@H]1CN(C)C(=O)Nc1ccccc1`: the growth inhibition call was “inactive”.

Turning to `CC1COc2c(N3CCN(C)CC3)c(F)cc3c(=O)c(C(=O)O)cn1c23` (stereo not given), the growth inhibition call is “active”.

For `CCCC(=O)Nc1ccc2c(c1)OC[C@@H](C)N(S(=O)(=O)c1cn(C)cn1)C[C@H](C)[C@@H](OC)CN(C)C2=O`, the growth inhibition call was “inactive”.

In the case of `Cc1ccc(S(=O)(=O)Nc2ccc3c(c2)CC(=O)N([C@@H](C)CO)C[C@@H](C)[C@@H](CN(C)S(=O)(=O)c2c(C)noc2C)O3)cc1`, the growth inhibition call was “inactive”.

Turning to `CC(C)(C)[S@@](=O)N1Cc2cc(C(=O)NCCc3ccncc3)nc(-c3cccc(-c4ccccc4)c3)c2[C@H]1CCO`, the growth inhibition call is “inactive”.
